# Out of some 260,000 compounds screened, about 890 (0.34%) were called active. The inconclusive results got no clear call from the source; some entries with a clear call stand among them for comparison. Calls come from the whole dose curve; as a rule, active = well fitted activation curve with a large enough effect; inconclusive = small, poorly fitted or top-dose-only effect; inactive = no such curve, though single readings can be large or run the other way. Potencies of inconclusive entries are left out as doubtful fits.
# Biological target: Pyruvate kinase PKM (Homo sapiens) (UniProt P14618)
# Assay: qHTS Assay for Activators of Human Muscle isoform 2 Pyruvate Kinase; note: nearly all actives have a fitted effect of over 55% in size
# Details: purified PKM2, Kinase-Glo ATP luminescence; Potency: activation; activation: at 57.5 µM (top of the series), 0% is enzyme alone, no compound
# Summary of the method: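 Purified hPK-M2 (>95% pure) converted ADP (0.1 mM final) to ATP with 0.5 mM PEP in 50 mM imidazole pH7.2, KCl, MgCl2, Tween 20, BSA; 1 h at room temperature. ATP detected by Kinase-Glo luminescence.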
# Potency is the fitted concentration of half-maximal effect; tags give direction and shape of the fitted curve.
# Sequence of UniProt P14618 (P14618 whole entry, looked up, canonical isoform): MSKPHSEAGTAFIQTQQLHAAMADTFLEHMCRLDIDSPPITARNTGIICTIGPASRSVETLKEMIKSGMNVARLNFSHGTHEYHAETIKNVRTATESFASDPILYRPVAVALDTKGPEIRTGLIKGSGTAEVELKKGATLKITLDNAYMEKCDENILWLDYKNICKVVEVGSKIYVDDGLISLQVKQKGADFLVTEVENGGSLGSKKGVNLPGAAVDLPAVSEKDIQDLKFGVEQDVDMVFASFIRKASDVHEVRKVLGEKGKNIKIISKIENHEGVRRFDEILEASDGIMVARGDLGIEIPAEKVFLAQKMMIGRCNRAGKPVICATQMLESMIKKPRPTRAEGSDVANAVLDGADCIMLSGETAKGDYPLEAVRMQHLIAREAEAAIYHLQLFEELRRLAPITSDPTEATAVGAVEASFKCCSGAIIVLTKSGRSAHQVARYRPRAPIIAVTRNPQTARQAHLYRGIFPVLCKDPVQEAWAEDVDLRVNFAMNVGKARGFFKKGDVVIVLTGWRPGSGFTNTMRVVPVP
row,Structure (SMILES),Potency
1,CCCCC(=O)Nc1ccc(C(=O)NNC(=S)NC(=O)c2ccco2)cc1,inactive
2,O=C1c2ccccc2NC(c2ccco2)N1O (stereo not drawn),inactive
3,COc1ccc2cc(C3CC(c4ccco4)=NN3C(=O)CCC(=O)O)c(Cl)nc2c1 (stereo not drawn),"inconclusive [rising, partial curve]"
4,CCCCN(C(=O)c1ccc2c(c1)OCO2)c1ccccc1,inactive
5,CCc1ccc(NC(=O)CCn2c(=O)oc3ccccc32)cc1,"inconclusive [rising, single point]"
6,Cc1nn(C)c(N)c1[N+](=O)[O-],"inconclusive [rising, single point]"
7,CC(=O)Nc1ccccc1NS(=O)(=O)c1ccccc1[N+](=O)[O-],active: 39.8 µM
8,COC(=O)c1ccc(COc2cccc3c2CCN(Cc2cccc(C)c2)C3=O)o1,"inconclusive [rising, partial curve]"
9,COCCNC(=S)N(CCc1c(C)[nH]c2ccc(F)cc12)Cc1cccs1,inactive
10,Cc1ccc2c(C)c(C(=O)N(C)C(C)c3ccncn3)oc2c1C (stereo not drawn),inactive
11,O=C(NCc1ccc(Cl)cc1)c1ccc2nc[nH]c2c1,inactive
12,COC(=O)[C@@]1(Cc2ccc(F)cc2)[C@H]2c3cc(C(=O)N(C)C)n(Cc4ccc(C)o4)c3C[C@H]2CN1C(=O)c1ccccc1,active: 7.08 µM
13,Cc1c(CCO)c(=O)n(-c2ccccc2)n1S(=O)(=O)c1c(Cl)cc(Cl)cc1Cl,"inconclusive [rising, full curve]"
14,Cc1cccc(CC(=O)Nc2cc(=O)n(C)c(=O)n2C)c1,"inconclusive [rising, partial curve]"
15,CCNC(=O)OCC(CC)NC(=O)OCC(C)C (stereo not drawn),inactive
16,COc1ccc(S(=O)(=O)N2CCN=C2SCc2cccnc2)cc1,"inconclusive [rising, partial curve]"
17,O=C(Nc1nc2ccccc2s1)c1ccc(N2CCCCC2)c([N+](=O)[O-])c1,inactive
18,CCC(CC)C(=O)Nc1nnc(S(=O)(=O)N2CCc3ccccc32)s1,"inconclusive [rising, single point]"
19,CN1C2CC(OC(=O)C(CO)c3ccccc3)CC1C1OC12 (stereo not drawn),inactive
20,Cc1ccc(/C=C2\SC(=S)N(CC3CCCO3)C2=O)o1 (stereo not drawn),"inconclusive [rising, partial curve]"
21,CCOC(=O)c1c(-c2ccccc2)csc1NC(=O)CSc1nnc(C)s1,"inconclusive [rising, partial curve]"
22,Cc1cc(C(=O)CSc2ncccn2)c(C)n1Cc1ccco1,"inconclusive [rising, single point]"
23,O=c1oc2ccccc2c(Nc2ccccc2)c1[N+](=O)[O-],"inconclusive [rising, single point]"
24,COc1cccc(CNc2ccc(F)c([N+](=O)[O-])c2)c1O,"inconclusive [rising, partial curve]"

row,Structure (SMILES),Potency
1,CCc1ccc(OCCCC(=O)Nc2ccc(S(N)(=O)=O)cc2)cc1,"inconclusive [rising, single point]"
2,CCOc1ccc2ccccc2c1C1NC(=O)N(C)C(C)=C1C(=O)OCCOC (stereo not drawn),inactive
3,Cc1cc(NS(=O)(=O)c2ccc(NC(=O)/C=C/c3ccc(C)o3)cc2)nc(C)n1,"inconclusive [rising, partial curve]"
4,Cc1ccc(NC(=O)CSc2ccc(C(N)=O)cc2[N+](=O)[O-])cc1C,inactive
5,CCOc1cc(C)c(Cl)cc1S(=O)(=O)n1cnc2ccccc21,"inconclusive [rising, partial curve]"
6,S=C(Nc1cccc(Cl)c1)Nc1cccc2cnccc12,"inconclusive [rising, single point]"
7,CS(=O)(=O)Nc1ccc(N2CCN(c3ccc(C(F)(F)F)cn3)CC2)nc1,inactive
8,O=C(Nc1nnc(C2=COCCO2)o1)c1ccc([N+](=O)[O-])s1,inactive
9,O=C(O)c1cccc(CN2C(=O)S/C(=C/c3cccc([N+](=O)[O-])c3)C2=O)c1,"inconclusive [rising, single point]"
10,O=C(O)c1cccc(Nc2ccc3nonc3c2[N+](=O)[O-])c1,inactive
11,Cc1ccc(OCCNC(=O)/C=C/c2ccco2)cc1C,"inconclusive [rising, single point]"
12,O=C(CSc1nnc(-c2ccccc2Br)o1)N1CCN(C(=O)c2ccco2)CC1,"inconclusive [rising, single point]"
13,CCOC(=O)c1cc(=O)n2nc(-c3ccc(C)cc3)nc2s1,"inconclusive [rising, full curve, poor fit]"
14,CN1CCN(S(=O)(=O)c2ccc(NC(=S)NC(=O)C3CCCCC3)cc2)CC1,inactive
15,Cc1cc(NC(=O)CSc2nnc(-c3ccc4c(c3)OCCO4)o2)no1,"inconclusive [rising, full curve, poor fit]"
16,CCSc1ccccc1C(=O)Nc1cc(OC)c(OC)c(OC)c1,active: 28.2 µM
17,CC1CC(c2ccccc2)n2nc(NC(=O)c3cccs3)nc2N1 (stereo not drawn),"inconclusive [rising, single point]"
18,CCCCCCS(=O)Cc1ccccc1 (stereo not drawn),"inconclusive [rising, single point]"
19,CS/C(N)=N/S(=O)(=O)c1ccc(NC(C)=O)cc1,"inconclusive [rising, partial curve]"
20,COC(=O)c1c(NC(=O)CCc2ccc(C)o2)sc(C)c1C,active: 7.94 µM
21,COc1ccc(NC(=O)CC2Sc3ncnn3C2=O)cc1 (stereo not drawn),"inconclusive [rising, single point]"
22,NS(=O)(=O)c1c(Sc2ccccc2C(=O)O)ccc2ccccc12,"inconclusive [rising, full curve, poor fit]"
23,Cc1ccc(CNC(=O)C2CC(c3ccccc3[N+](=O)[O-])=NO2)o1 (stereo not drawn),"inconclusive [rising, single point]"
24,Cc1cc(NC(=O)CSc2nc3c(cc2C#N)CCCC3)no1,"inconclusive [rising, full curve, poor fit]"

# From PubChem BioAssay AID1631 (National Center for Advancing Translational Sciences (NCATS), 2009)
